# Results reported in paper PMC6919601, “Identification of Plasmodium dipeptidyl aminopeptidase allosteric inhibitors by high throughput screening” (PLoS ONE, 2019).
# Screen size: about 110,000 compounds; about 230 (0.21%) showed an effect of 50% or more. The list shows a part of the results.
# Biological target: DPAP1 (Plasmodium falciparum, UniProt Q8IIJ9)
# Experiment: primary screen, percent inhibition; read by cleavage of a fluorogenic dipeptide substrate; higher = more effect of the substance
# Parameters: species or system P. falciparum D10 trophozoite lysates; single well
# 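Further: 30 min substrate incubation versus DMSO and 10 µM JCP410 controls.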
# DPAP1, sequence (Q8IIJ9 whole entry, looked up): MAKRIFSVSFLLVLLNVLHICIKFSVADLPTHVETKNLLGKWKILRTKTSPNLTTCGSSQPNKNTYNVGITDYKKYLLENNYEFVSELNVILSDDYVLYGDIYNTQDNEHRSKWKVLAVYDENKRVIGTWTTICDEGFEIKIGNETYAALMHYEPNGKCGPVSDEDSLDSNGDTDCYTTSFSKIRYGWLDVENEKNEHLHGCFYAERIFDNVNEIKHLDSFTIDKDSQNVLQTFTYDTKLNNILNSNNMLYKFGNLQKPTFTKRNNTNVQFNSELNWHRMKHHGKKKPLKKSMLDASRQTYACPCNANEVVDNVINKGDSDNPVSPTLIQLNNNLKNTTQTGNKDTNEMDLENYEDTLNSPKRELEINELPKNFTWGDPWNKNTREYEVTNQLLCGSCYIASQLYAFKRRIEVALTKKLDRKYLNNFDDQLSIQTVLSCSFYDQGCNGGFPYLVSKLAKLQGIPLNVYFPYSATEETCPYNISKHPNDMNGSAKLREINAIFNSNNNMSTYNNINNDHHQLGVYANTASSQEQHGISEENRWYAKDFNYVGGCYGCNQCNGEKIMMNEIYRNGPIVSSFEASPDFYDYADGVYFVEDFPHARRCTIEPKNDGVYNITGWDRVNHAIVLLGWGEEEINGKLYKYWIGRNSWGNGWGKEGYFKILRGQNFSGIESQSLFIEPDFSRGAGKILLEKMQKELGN
row,Structure (SMILES),% Inhibition @ 10 uM [%]
1,c1ccc2c(c1)nnn2Cc1nnc2sc(-c3ccc4c(c3)OCO4)nn12,2.29
2,COc1ccccc1C1=N/C(=C\c2ccc(Cl)c(Cl)c2)C(=O)O1,3.9
3,O=C1C2C3CCC(C3)C2C(=O)N1c1cccc(C(F)(F)F)c1 (centres unmarked),-3.92
4,O=C(CN1N=C(c2ccccc2)CCC1=O)N1CCOCC1,3.79
5,O=C1c2c(c3ccccc3n2Cc2ccccc2)CCN1c1ccccc1,0.00178
6,CC(=O)N1CCN(c2cc(C)c([N+](=O)[O-])cc2F)CC1,-0.711
7,CCOc1ccc(CCNC(=O)C2CCN(c3nnc(N4CCCC4=O)s3)CC2)cc1OCC,3.87
8,Cc1cc(NCc2ccncc2)nc2ccccc12,-3.44
9,CC1CN(C(=O)c2ccc(COc3ccccc3Br)o2)CC(C)O1 (centres unmarked),-1.55
10,O=C1c2cccc3cccc(c23)C(=O)N1CCCC(=O)N1CCCc2ccccc21,16.8
11,COCCNC(=O)CN1C(=O)c2ccccc2S1(=O)=O,-1.17
12,COc1ccc(CC(=O)Nc2cccc(Cl)c2)cc1OC,-1.17
13,Cc1ccc2nc3c(cc(C(=O)NCc4cccnc4)c(=N)n3Cc3ccco3)c(=O)n2c1,-1.47
14,O=C(Nc1ccccc1Cl)N1CCN(c2ccccc2)CC1,-3.14
15,CC(=O)N1CCN(c2ccc(Cl)cc2[N+](=O)[O-])CC1C (centres unmarked),1.43
16,COc1ccc(NC(=O)CN(c2ccc(Br)cc2)S(C)(=O)=O)c(OC)c1,-5.13
17,COc1cccc(Cn2c(SCc3ccc(C(=O)N4CCCC4)cc3)nc3ccncc32)c1,2.65
18,CCCN(Cc1c[nH]c2ccccc12)CC1CC1,2.7
19,Cc1cc(=O)n2nc(N(C)CC(=O)NCc3cccs3)sc2n1,-2
20,CN1CCC(N(C)Cc2cccc(Oc3ccccc3)c2)CC1,-4.94
21,CCCCCOC(=O)NCC(O)c1ccccc1 (centres unmarked),-4.08
22,COc1ccc(C2CC(C(F)(F)F)n3ncc(C(=O)Nc4ccc5c(c4)OCO5)c3N2)cc1 (centres unmarked),-1.35
23,Cc1nn(CC(=O)Nc2nnc(CCc3ccccc3)s2)c(C)c1Cl,0.883
24,COc1cc2c(cc1OC)C(C(=O)NCC1COc3ccccc3O1)C(c1cccs1)N(C)C2=O (centres unmarked),1.83
25,COc1cccc(CNCc2c(C(=O)O)n(Cc3cccc(Cl)c3)c3ccccc23)c1,-3.21
26,Cn1cc(S(=O)(=O)N2CCCC2)cc1C(=O)N1CCN(C2CCCCC2)CC1,-0.361

row,Structure (SMILES),% Inhibition @ 10 uM [%]
1,CC1CCN(C(=O)CCNS(=O)(=O)c2cccc3nsnc23)CC1,-2.04
2,Cc1cccc(NC(=O)CC(c2ccccc2)c2ccccc2)n1,-0.053
3,O=C(CN(c1ccc(F)cc1)S(=O)(=O)c1ccc2c(c1)OCCO2)NCc1ccc(Cl)cc1,1.1
4,Cc1ccccc1Cc1c(C)nc2c(C(=O)N3CCOCC3)cnn2c1C,-5.92
5,O=C(Cc1ccccc1)Nc1ccccc1C(=O)O,-5.51
6,CNS(=O)(=O)c1ccc(NC(=O)Cn2nc(C(F)F)cc2C)cc1,6.65
7,CCOc1ccccc1NS(=O)(=O)c1c(C)cc(C)cc1C,-1.62
8,CCOc1ccc(C(C)(C)C)cc1S(=O)(=O)n1cnc2ccccc21,3.93
9,CCOC(=O)N1CCN(C(=O)c2cc3cc4ccc(C)cc4nc3s2)CC1,-0.148
10,COc1cc2c(C(=O)NCCCN3CC(C)CC(C)C3)cn(CC(C)C)c(=O)c2cc1OC (centres unmarked),-4.86
11,Cc1nc(O)c2c(n1)OC(N)=C(C#N)C2c1ccc(Cl)cc1 (centres unmarked),0.815
12,Cc1ccc(CNC(=O)CCCn2ccc3cc(S(=O)(=O)N4CCCC4)ccc32)cc1,-5.94
13,CC(=O)NC(CC(=O)c1ccc(Cl)cc1Cl)C(Cl)(Cl)Cl (centres unmarked),-5.51
14,CCOc1nc(-c2ccccc2)ncc1Oc1ccccc1,-0.511
15,COc1ccccc1/C=C/CN(C)C1CCN(C)CC1,7.79
16,COc1ccc(NC(=O)CC2(c3ccc(C)cc3)CCOC(C)(C)C2)cc1 (centres unmarked),-7.06
17,Nc1c(C(=O)Nc2cc(F)ccc2F)sc2nc(-c3ccncc3)ccc12,8.66
18,O=c1c2ccccc2ncn1CCCn1c(Cc2ccccc2)nc2ccccc21,-4.39
19,COc1cccc(N2C(=O)CC(N3CCN(Cc4ccccc4)CC3)C2=O)c1 (centres unmarked),-5.9
20,COc1ccc(C(=O)CCN(C)C)cc1F,3.01
21,O=S(=O)(c1ccc(-c2cs/c(=N\c3ccccc3)n2CC2CCCO2)cc1)N1CCCCC1 (centres unmarked),2.76
22,CCOc1cc(C2NC(S)=NC(C)=C2C(=O)NC)ccc1O (centres unmarked),-1.33
23,Cc1cc(-c2nc(-c3cccnc3)[nH]c2-c2cc(C)sc2C)c(C)s1,-2.91
24,COc1ccc(C(=O)N2CCn3c2nc2ccccc23)cc1OC,-5.1
25,O=C1NC2=C(C(=O)c3ccccc32)C(c2ccc(Cl)cc2)S1 (centres unmarked),9.86
26,OCCN(CC#CC(O)(c1ccccc1)c1cccc(F)c1)CCO (centres unmarked),-1.33

row,Structure (SMILES),% Inhibition @ 10 uM [%]
1,O=C(O)CC(CC(=O)c1ccccc1)c1ccccc1 (centres unmarked),2.65
2,O=C(NC(c1ccccc1)c1ccccc1)c1cccnc1,0.135
3,CC(=O)N(C)c1ccccc1C(=O)O,-8.51
4,CC1CCN(C(=O)CN(C)S(=O)(=O)c2cccc3nsnc23)CC1,-1.43
5,O=C(c1cnc2c(c1)COc1ccccc1-2)c1cc(Br)ccc1O,-5.35
6,Cc1cccc(NC2=NC(=O)/C(=C\c3cccc(O)c3)S2)c1,8.75
7,COc1ccc(CCNS(=O)(=O)c2ccc(CCN3C(=O)c4cccnc4C3=O)cc2)cc1OC,-0.231
8,N#CC1=C(N)NC(SCC(=O)Nc2ccc(Br)cc2)=C(C#N)C12CCCCC2,6.15
9,COCCCNC(=O)c1nnc(-c2ccc3c(c2)OCO3)o1,-3.8
10,O=C(CSc1nc2c(c(=O)n1Cc1ccccc1)SCC2)NCc1ccco1,4.29
11,Cc1ccccc1-c1nc(-c2ccc(Br)cc2)no1,5.32
12,O=C(O)c1nc(O)nc2ccccc12,3.54
13,CCOC(=O)/C(C#N)=C/c1c(OCC)n(CC)c2ccccc12,2.22
14,N#Cc1c(C(F)(F)F)cc(-c2ccccc2)nc1S,73.6
15,CC(C)(C)N(Cc1ccc([N+](=O)[O-])cc1)CC(O)COc1ccccc1 (centres unmarked),3.34
16,CC1CCN(C(=O)C2CCN(S(=O)(=O)c3cc(Cl)ccc3Cl)CC2)CC1,-0.641
17,Cc1cccc(Cc2c(C)nc3c(C(=O)O)cnn3c2C)c1,5.99
18,CCCCCCN1C(=O)C(O)=C(C(C)=O)C1c1ccc(Cl)cc1 (centres unmarked),1.37
19,CCc1ccccc1NC(=O)CSCC(=O)Nc1ccc(C)cc1,1.08
20,Cc1cc2c(cc1Br)NC(=O)C21C(C#N)=C(N)OC2=C1C(=O)CC(c1ccccc1)C2 (centres unmarked),2.76
21,COc1ccccc1N1CCN(C(=O)COc2ccc(Cl)cc2Cl)CC1,6.8
22,CSc1ccc(CCNC(=O)CCCN2C(=O)c3ccccc3Sc3ncccc32)cc1,-4.46
23,COc1ccc(OC)c(NCc2ccc(C(F)(F)F)cc2)c1,-0.603
24,CC1CC(C)CN(C(=O)CCn2nc(-c3ccc(Cl)cc3)ccc2=O)C1 (centres unmarked),1.62
25,CCCCSC1=C(C#N)C(=O)NC(C)(C)S1,1.72
26,COc1ccc(-c2ncnn2-c2ccc(Br)cc2F)cc1,1.29

row,Structure (SMILES),% Inhibition @ 10 uM [%]
1,COc1ccc(N(CC(=O)NCc2ccccc2)S(C)(=O)=O)cc1Cl,-3.78
2,O=C(c1ccc(F)cc1)N(Cc1ccccc1)c1ccccn1,-5.16
3,COc1ccccc1-n1c(C)cc(/C=C2/C(=N)N3C=C(C)SC3=NC2=O)c1C,-4.84
4,C1=C(CCNc2nn3nnnc3c3ccccc23)CCCC1,-0.436
5,C=CCSc1nc(=O)c2c(n1C)NC(=O)CC2c1ccc(OCC)c(OC)c1 (centres unmarked),-2.88
6,COc1cccc(NC(=O)c2c(Cl)nc(C)c(Cl)c2C)c1,-3.65
7,CC1=C(CCN2CCN(c3ccc(F)cc3)CC2)C(C)(C)CCC1,3.15
8,Cc1nn2c(=O)/c(=C/c3cccs3)sc2nc1=O,1.91
9,CC1(C)Cn2c(nc(=O)c3c2NC(=O)C3(O)C(F)(F)F)S1 (centres unmarked),-1.11
10,O=C(NC1CCCc2ccccc21)C1CCN(S(=O)(=O)c2cccc3nonc23)CC1 (centres unmarked),5.74
11,Cc1cc(C)c(/C(O)=C/C2=NCCNC2=O)c(C)c1,-3.09
12,Cc1nn(CCCC(=O)NCCCN(Cc2ccccc2)C(C)C)c(=O)c2c1sc1ccccc12,-3.76
13,O=C1C2C3CCC(O3)C2C(=O)N1Cc1ccncc1 (centres unmarked),8.94
14,Cc1cc(C)c(S(=O)(=O)c2ccccc2)cc1C,-3.58
15,CCOc1ccccc1-n1c(C)cc(C)nc1=O,-1.17
16,COc1cc(N(C)C)c([N+](=O)[O-])cc1C(=O)N1CC(C)NC(C)C1 (centres unmarked),-5.38
17,CC1=CC(C)(C)N(Cc2ccc([N+](=O)[O-])cc2)c2cc(C)c(C)cc21,-1.54
18,O=C1CC2C(=O)NCCN2C(NC(=O)c2ccccc2)=N1 (centres unmarked),4.96
19,CC(O)CN(Cc1ccccc1)CC(C)O (centres unmarked),4.28
20,CCn1ccnc(N2CCOCC2)/c1=N/c1ccc(OC)cc1,3.05
21,O=C1C=C2c3ccccc3CC3(CCCC3)N2C1=O,-0.28
22,N#CC1=C(N)Oc2[nH]nc(-c3cccs3)c2C1c1cc2c(cc1Cl)OCO2 (centres unmarked),3.62
23,CC(C)(C)c1ccc(C(=O)Nc2cc(-c3ccccc3)no2)cc1,-5.08
